The text below walks through data of publication PMC7271317.

By UniProt entry, the sequences of proteins in these tests, tags left out.
UniProt Q96RY7: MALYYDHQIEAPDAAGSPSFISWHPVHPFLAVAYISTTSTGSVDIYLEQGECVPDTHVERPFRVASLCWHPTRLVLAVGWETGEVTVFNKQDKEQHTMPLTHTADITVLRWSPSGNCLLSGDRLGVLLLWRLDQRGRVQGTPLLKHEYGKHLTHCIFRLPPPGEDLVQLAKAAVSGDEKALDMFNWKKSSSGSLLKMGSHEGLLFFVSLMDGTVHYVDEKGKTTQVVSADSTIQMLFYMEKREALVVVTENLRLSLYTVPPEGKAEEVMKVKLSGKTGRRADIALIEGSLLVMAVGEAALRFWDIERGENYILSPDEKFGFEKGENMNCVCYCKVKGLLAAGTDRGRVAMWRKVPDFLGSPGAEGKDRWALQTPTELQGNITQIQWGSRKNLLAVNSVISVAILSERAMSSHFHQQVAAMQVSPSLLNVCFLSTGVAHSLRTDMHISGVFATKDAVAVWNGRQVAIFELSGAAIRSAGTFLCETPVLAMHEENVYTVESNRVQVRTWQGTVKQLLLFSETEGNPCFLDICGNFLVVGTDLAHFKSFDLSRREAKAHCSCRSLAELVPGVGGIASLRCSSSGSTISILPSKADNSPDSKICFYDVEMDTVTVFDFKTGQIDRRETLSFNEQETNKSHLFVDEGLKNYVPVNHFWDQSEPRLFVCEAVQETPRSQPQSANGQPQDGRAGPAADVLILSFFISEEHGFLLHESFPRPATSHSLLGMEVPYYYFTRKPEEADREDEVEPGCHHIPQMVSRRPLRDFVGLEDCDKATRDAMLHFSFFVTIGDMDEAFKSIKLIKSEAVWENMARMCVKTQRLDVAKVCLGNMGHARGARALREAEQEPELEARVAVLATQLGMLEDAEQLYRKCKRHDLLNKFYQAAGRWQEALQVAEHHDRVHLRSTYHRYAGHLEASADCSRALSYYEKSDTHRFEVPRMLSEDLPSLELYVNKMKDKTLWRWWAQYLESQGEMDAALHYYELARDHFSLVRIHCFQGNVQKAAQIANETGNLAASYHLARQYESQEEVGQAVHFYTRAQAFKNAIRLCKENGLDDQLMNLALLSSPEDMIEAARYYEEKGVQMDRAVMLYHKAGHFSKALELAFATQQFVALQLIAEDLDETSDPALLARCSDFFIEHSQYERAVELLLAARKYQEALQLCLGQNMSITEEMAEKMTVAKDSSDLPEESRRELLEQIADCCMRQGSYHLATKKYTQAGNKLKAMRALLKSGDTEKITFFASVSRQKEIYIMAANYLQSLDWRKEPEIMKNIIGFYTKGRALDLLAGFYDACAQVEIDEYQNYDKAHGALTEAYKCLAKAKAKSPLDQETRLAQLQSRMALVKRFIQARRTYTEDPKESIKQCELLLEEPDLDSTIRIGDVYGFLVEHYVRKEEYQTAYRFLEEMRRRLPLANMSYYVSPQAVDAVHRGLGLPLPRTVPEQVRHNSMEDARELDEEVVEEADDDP

In assay [1] the target is T1, motor (Mot) domain of HSET fused to GFP (aa 145-673) (human) (UniProt Q9BW19).
T1 sequence: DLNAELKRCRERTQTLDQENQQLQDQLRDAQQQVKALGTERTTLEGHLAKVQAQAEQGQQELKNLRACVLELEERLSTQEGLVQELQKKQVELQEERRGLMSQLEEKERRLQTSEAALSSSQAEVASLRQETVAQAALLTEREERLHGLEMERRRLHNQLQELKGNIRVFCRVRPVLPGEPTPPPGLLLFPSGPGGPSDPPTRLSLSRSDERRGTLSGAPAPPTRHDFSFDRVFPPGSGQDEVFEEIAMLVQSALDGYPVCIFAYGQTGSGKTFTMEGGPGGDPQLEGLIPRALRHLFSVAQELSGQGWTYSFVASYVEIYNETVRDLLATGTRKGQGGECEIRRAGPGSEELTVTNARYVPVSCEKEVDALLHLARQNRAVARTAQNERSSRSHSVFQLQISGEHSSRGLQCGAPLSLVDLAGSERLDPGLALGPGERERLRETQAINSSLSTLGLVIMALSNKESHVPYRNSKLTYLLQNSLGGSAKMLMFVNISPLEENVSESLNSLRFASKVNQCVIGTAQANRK
Description: pull-down; purified GFP-HSET constructs on GFP-Trap beads incubated with 300 μl mitotic (nocodazole) MDA-MB-231 cell lysate (0.2% NP-40) for 1 h at RT, five washes, immunoblot; GFP-Trap beads alone as control; only the target purified. On the technique in general: A western blot detects proteins with antibodies after separation by electrophoresis.

The target in assay [2] is T2, recombinant full-length (FL) GFP-HSET (human) (UniProt Q9BW19).
T2 sequence: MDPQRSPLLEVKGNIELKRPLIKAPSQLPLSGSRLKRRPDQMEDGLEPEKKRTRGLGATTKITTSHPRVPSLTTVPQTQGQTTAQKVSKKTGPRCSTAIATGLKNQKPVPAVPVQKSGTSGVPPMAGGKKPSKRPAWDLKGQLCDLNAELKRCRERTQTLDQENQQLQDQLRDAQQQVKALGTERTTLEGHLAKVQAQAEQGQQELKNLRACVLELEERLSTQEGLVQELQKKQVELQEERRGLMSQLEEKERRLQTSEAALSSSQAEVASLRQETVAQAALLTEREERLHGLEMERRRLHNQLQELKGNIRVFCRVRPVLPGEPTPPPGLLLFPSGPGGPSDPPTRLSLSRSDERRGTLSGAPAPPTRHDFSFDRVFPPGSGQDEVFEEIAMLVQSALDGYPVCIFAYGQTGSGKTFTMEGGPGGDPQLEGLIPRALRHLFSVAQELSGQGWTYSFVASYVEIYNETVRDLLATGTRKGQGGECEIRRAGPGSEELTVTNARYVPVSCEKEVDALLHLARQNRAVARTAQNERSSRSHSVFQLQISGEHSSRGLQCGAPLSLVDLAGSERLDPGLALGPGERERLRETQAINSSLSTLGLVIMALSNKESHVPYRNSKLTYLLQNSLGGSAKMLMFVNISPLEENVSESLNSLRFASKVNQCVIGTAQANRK
Described as above.

Assay [3] deals with T3, HSET/KIFC1 (endogenous, MDA-MB-231) (human (endogenous in MDA-MB-231)) (UniProt Q9BW19).
T3 sequence: T2 sequence
Kind of assay: co-IP; endogenous immunoprecipitation of HSET (KIFC1/HSET antibody, rabbit IgG as control) from mitotic (nocodazole) MDA-MB-231 cell lysate, overnight 4°C, protein G-PLUS agarose, washes with 0.2% NP-40, Western blot.

No constants are given. Whether binding was seen depends on the method and setting. Binding seen in cells or lysates may run through a third protein. Some binding calls cover weakened binding; strength is not graded here. For some of these results: Where a sequence is shown, tags or fusion partners need not be part of it.

Regarding “IFT-A protein IFT140 (endogenous, MDA-MB-231) (from UniProt Q96RY7 1-1462)”, the binding result in assay [1] is “no binding”.

B1: IFT27 (endogenous, MDA-MB-231) (protein, UniProt Q9BW83 1-186)
chain: MVKLAAKCILAGDPAVGKTALAQIFRSDGAHFQKSYTLTTGMDLVVKTVPVPDTGDSVELFIFDSAGKELFSEMLDKLWESPNVLCLVYDVTNEESFNNCSKWLEKARSQAPGISLPGVLVGNKTDLAGRRAVDSAEARAWALGQGLECFETSVKEMENFEAPFHCLAKQFHQLYREKVEVFRALA
As for B1, in assay [1], the binding result is recorded as “no binding”.

B2: IFT52 (endogenous, MDA-MB-231) (protein, UniProt Q9Y366 1-437)
chain: MEKELRSTILFNAYKKEIFTTNNGYKSMQKKLRSNWKIQSLKDEITSEKLNGVKLWITAGPREKFTAAEFEILKKYLDTGGDVFVMLGEGGESRFDTNINFLLEEYGIMVNNDAVVRNVYHKYFHPKEALVSSGVLNREISRAAGKAVPGIIDEESSGNNAQALTFVYPFGATLSVMKPAVAVLSTGSVCFPLNRPILAFYHSKNQGGKLAVLGSCHMFSDQYLDKEENSKIMDVVFQWLTTGDIHLNQIDAEDPEISDYMMLPYTATLSKRNRECLQESDEIPRDFTTLFDLSIFQLDTTSFHSVIEAHEQLNVKHEPLQLIQPQFETPLPTLQPAVFPPSFRELPPPPLELFDLDETFSSEKARLAQITNKCTEEDLEFYVRKCGDILGVTSKLPKDQQDAKHILEHVFFQVVEFKKLNQEHDIDTSETAFQNNF
B2: the binding entry in assay [2] and in assay [1] was “binds” throughout.

B3: IFT88 (endogenous, MDA-MB-231) (protein, UniProt Q13099 1-824)
chain: MMQNVHLAPETDEDDLYSGYNDYNPIYDIEELENDAAFQQAVRTSHGRRPPITAKISSTAVTRPIATGYGSKTSLASSIGRPMTGAIQDGVTRPMTAVRAAGFTKAALRGSAFDPLSQSRGPASPLEAKKKDSPEEKIKQLEKEVNELVEESCIANSCGDLKLALEKAKDAGRKERVLVRQREQVTTPENINLDLTYSVLFNLASQYSVNEMYAEALNTYQVIVKNKMFSNAGILKMNMGNIYLKQRNYSKAIKFYRMALDQVPSVNKQMRIKIMQNIGVTFIQAGQYSDAINSYEHIMSMAPNLKAGYNLTICYFAIGDREKMKKAFQKLITVPLEIDEDKYISPSDDPHTNLVTEAIKNDHLRQMERERKAMAEKYIMTSAKLIAPVIETSFAAGYDWCVEVVKASQYVELANDLEINKAVTYLRQKDYNQAVEILKVLEKKDSRVKSAAATNLSALYYMGKDFAQASSYADIAVNSDRYNPAALTNKGNTVFANGDYEKAAEFYKEALRNDSSCTEALYNIGLTYEKLNRLDEALDCFLKLHAILRNSAEVLYQIANIYELMENPSQAIEWLMQVVSVIPTDPQVLSKLGELYDREGDKSQAFQYYYESYRYFPCNIEVIEWLGAYYIDTQFWEKAIQYFERASLIQPTQVKWQLMVASCFRRSGNYQKALDTYKDTHRKFPENVECLRFLVRLCTDLGLKDAQEYARKLKRLEKMKEIREQRIKSGRDGSGGSRGKREGSASGDSGQNYSASSKGERLSARLRALPGTNEPYESSSNKEIDASYVDPLGPQIERPKTAAKKRIDEDDFADEELGDDLLPE
As to B3, the binding result in assay [3], in assay [2] and in assay [1] was “binds” throughout.
